Here are results for 60 compounds from PubChem BioAssay (NCI).

The structures appear in SMILES notation. “And” between values parts separate entries of the source, which are not always exact repeats. Identical values can stand only once.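 Dose response: 5 concentrations. Exposure: 48 h. Format: 96-well plates. Endpoint: linear interpolation; highest concentration if not reached. GI50: concentration for 50% inhibition of growth. Definition used: TGI = concentration required for complete inhibition of growth.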

This assay has as its system NCI-H322M lung. Nature of the assay: inhibition of tumour cell growth, NCI panel, 48 h.

On to `O=c1c2c3c(sc2nc2n1sc1nc4sc5c(c4c(=O)n12)CCCC5)CCCC3`, for which the TGI was > 100 µM.

For `COc1ccc(/C=N/NS(=O)(=O)c2ccc(/C=C3\NC(=O)NC3=O)cc2)cc1`, the TGI is > 100 µM.

As for `COC12OCCN(C)C1=CC(=O)C1N=NCC12` (configuration not stated), the TGI was > 100 µM.

On to `CC(=O)Nn1c(Cc2ccc(Cl)cc2)nn(C)c1=O`, for which the TGI was > 100 µM.

For the compound `N=C1C(c2nc3ccccc3c(=O)[nH]2)=C(O)CN1c1cccc(Cl)c1`, the GI50 is 3.11 µM and the TGI is 33.3 µM.

As for `CCc1n[nH]c(=O)n1-n1c(C)ccc1C`, the TGI was > 100 µM.

`O=[N+]([O-])c1ccc(C2=NOC(c3ccccc3)N2C23CC4CC(CC(C4)C2)C3)cc1` (configuration not stated): the TGI was > 100 µM.

In the case of `O=C1CC[C@@H](S(=O)(=O)c2ccccc2)[C@H](/C=C/c2ccccc2)O1`, the TGI is > 100 µM.

Regarding `C=CCc1cc(OC)c(O)c(C(=O)/C=C/c2ccc(OC)c(OC)c2)c1`, the TGI came to 32.2 µM.

Regarding `c1ccc(CN2C3C4N(Cc5ccccc5)C2C2N(Cc5ccccc5)C(C(N2Cc2ccccc2)N4Cc2ccccc2)N3Cc2ccccc2)cc1`, the TGI was > 100 µM.

Turning to `OCC1NC(CO)C(O)C1O` (configuration not stated), the TGI was > 100 µM.

On to `CC(=O)O[C@H]1[C@@H](OC2CCCC2(c2ccccc2)c2ccccc2)O[N+]([O-])=C[C@@H]1c1ccccc1` (some centres not stated), for which the TGI is 28.3 µM.

In the case of `NC(=S)N/N=C/C(O[C@@H](/C=N/NC(N)=S)CO)n1cnc2c(N)ncnc21` (some centres not stated), the TGI was > 100 µM.

In the case of `CC[C@@]1(O)C(=O)OCc2c1cc1n(c2=O)Cc2cc3cc(O)ccc3nc2-1`, the GI50 is 0.129 µM; the TGI is 11.7 µM and 12.9 µM.

As for `COC1(OC)CCC2(C)OC(c3ccccc3)C1O2` (configuration not stated), the TGI is > 100 µM.

For the compound `OC(Cc1cnnc2ccccc12)C(Cl)(Cl)Cl` (configuration not stated), the TGI was > 10 µM.

As to `CC(=O)n1nc(-c2[nH]c(C)c(-c3nn(C(C)=O)c(=S)o3)c2C)oc1=S`, the TGI is > 100 µM.

As to `COC(=O)NC1=Nc2ccccc2C(=O)NN1`, the TGI was > 100 µM.

Regarding `C=C(Cl)[C@](Cl)(CBr)CC[C@@H](Br)C(C)(C)Cl`, the TGI worked out at 3.42 µM.

As for `CCNCCS(=O)(=O)NC[C@@]1(c2ccccc2)SC(NC(=O)C(C)(C)C)=NN1C(=O)C(C)(C)C`, the GI50 was < 0.01 µM and the TGI was > 100 µM.

Turning to `COc1cc(C2C=C(C)N=C3SC=C(C)N32)cc(OC)c1OC` (configuration not stated), the GI50 is 3.01 µM and the TGI is 11.1 µM.

For `COc1cc(O)c2c(c1C)C(C)(O)c1c(C)coc1C2=O` (configuration not stated), the TGI is > 100 µM.

As for `COC(=O)C(Cc1c(-c2[nH]c3ccccc3c2CC(NC(C)=O)C(=O)OC)[nH]c2ccccc12)NC(C)=O` (configuration not stated), the TGI is > 100 µM.

Consider `C/C(=N\O)C1CC(CC(=O)O)C1(C)C` (configuration not stated), for which the TGI was > 100 µM.

Take `CC1(C)CCC2(C(=O)O)C(O)CC3(C)C(=CCC4C5(C)CCC(OC6OCC(O)C(O)C6OC6OCC(O)C(O)C6OC6OCC(O)C(OC7OC(CO)C(O)C(O)C7O)C6O)C(C)(C)C5CCC43C)C2C1` (configuration not stated): the TGI is > 100 µM.

For the compound `CCN(CC)Cc1cc(Nc2ccnc3ccc(OC)cc23)ccc1O`, the GI50 was 3.26 µM and the TGI was 13.7 µM.

Consider `CC(C)(C)OC(=O)NC(Cc1ccc(OC(C)(C)C)cc1)C(=O)N[C@H]1CC[C@H](C(=O)O)C1` (some centres not stated), for which the TGI was > 100 µM.

Regarding `Cc1[nH]c2ccccc2c1/C=C/c1c(C)[nH]c2ccccc12`, the TGI was > 100 µM.

For the compound `Cc1ccc(NC(=O)CC(=O)N2N=C(N(c3ccccc3)c3ccccc3)CC2c2ccccc2)cc1` (configuration not stated), the TGI was > 100 µM.

`CCCCNC(=O)CC1=C(C)/C(=C/c2[nH]c(-c3ccc[nH]3)cc2OC)N=C1C`: the GI50 was 4.39 µM and the TGI amounted to 16.7 µM.

As to `[N-]=[N+]=NC1(Cc2ccccc2)C(=O)Nc2ccccc2C1=O` (configuration not stated), the TGI is > 100 µM.

`CC(=O)NNc1nc(C)c(C(=O)/C=C/c2ccc(N(C)C)cc2)s1`: the TGI was > 100 µM.

For the compound `O=C1C=C(Nc2cc(Cl)ccc2Cl)c2ccccc2C1=O`, the TGI turned out to be 39.8 µM.

With `CN1CCN(CCCCCOc2cc(O)c3c(=O)cc(-c4ccccc4)oc3c2)CC1`, the GI50 was 2.1 µM and the TGI is 8 µM.

In turn, `O=C(Cc1csc2[n+]1C(=O)/C(=C/c1ccc(Cl)cc1)S2)Nc1ccccc1` registered a TGI of 87.1 µM.

Regarding `COC(=O)COc1ccccc1/C=C1/N=C(c2ccccc2)N(c2c(C)n(C)n(-c3ccccc3)c2=O)C1=O`, the GI50 was > 100 µM and the TGI was > 100 µM.

Compound `Cc1cc(N(CCC#N)CCC#N)ccc1/C(Sc1ccccc1)=C(\NC(=O)/C=C/c1ccccc1)C(=O)Sc1ccccc1` showed a TGI of 25.9 µM.

As to `COC1=CC(=O)C2=C(C1=O)[C@H]1CC[C@]3(C)C(=O)CC[C@H]3[C@@H]1CC2`, the TGI was > 100 µM.

Take `CCN(CC)CC(C(C)=O)C(c1ccccc1)c1c(O)c2ccccc2oc1=O` (configuration not stated): the TGI was > 100 µM.

Consider `CCCCN(CCCC)CC(C(=O)Nc1ccc([N+](=O)[O-])cc1[N+](=O)[O-])/C(C)=N\NC(=O)c1ccncc1` (configuration not stated), for which the TGI was > 100 µM.

As to `COc1ccc(CCn2ccc(C)n2)c(OC)c1`, the TGI is > 100 µM.

As to `O=C(CCl)N1CCN(c2ccccc2)CC1`, the TGI is 35.7 µM.

For `COc1ccc(NCc2cccc3c(=O)c4ccc(Cl)cc4oc23)cc1`, the TGI was > 100 µM.

`CCCN(CCCC(NC(C)=O)C(=O)NCc1ccccc1)C(=O)N(C)N=O` (configuration not stated): the TGI is > 100 µM.

Take `CC(O)C1(O)C(O)CC(OC2c3cc4c(c(O)c3[C@@H]3C[C@@]2(C)OC32C=c3cc[nH]c3=N2)C(=O)c2cccc(O)c2C4=O)OC1C` (some centres not stated): the TGI worked out at 6.88 µM.

Take `Cc1c(N)c(C#N)c2n(C)c3ncccc3n2c1=O`: the TGI is > 100 µM.

`C=C1C(=O)O[C@H]2C(=O)[C@H](C)CCC/C(C)=C/CC[C@@]3(C)O[C@@H]3C[C@@H]12` returned a TGI of 17.7 µM.

Compound `NC(N)=N/N=C/c1c(-c2ccc([N+](=O)[O-])cc2)nc2sc(Cl)cn12` showed a TGI of 1.93 µM.

The compound `COC(=O)NCCc1[nH]nc2c1C(=O)C=C(Nc1ccccc1OC)C2=O` displayed a TGI of 82.9 µM.

Turning to `COC1(OC)CCCCCCCCC(OC)(OC)CCCCCCCC1`, the TGI is > 100 µM.

For `CCOC(=O)C(Cc1ccccc1)n1c(O)c(/C=N/c2ncc(Cc3ccc(Cl)cc3Cl)s2)sc1=S` (configuration not stated), the GI50 is 3.38 µM and the TGI worked out at 37.2 µM.

As for `Cc1cc(NS(=O)(=O)c2ccc(-c3cnc(C4CC4)o3)cc2)ccc1Cl`, the GI50 is 0.639 µM and the TGI turned out to be 19.6 µM.

Regarding `C=CC(=O)C#Cc1cnc(OC)nc1OC`, the TGI was > 100 µM.

As for `CCOC(=O)/C1=C(\C)N(Cc2ccccc2)C(=O)c2ccccc2C(=O)c2c(OC(C)=O)ccc(OC(C)=O)c21`, the TGI was > 100 µM.

Turning to `Oc1ccc(I)c2cccnc12`, the TGI amounted to 82.5 µM.

For the compound `CC(=O)NC(CCc1ccc(Cl)c(Cl)c1)c1cccc(O)c(=O)c1` (configuration not stated), the GI50 is 0.417 µM and the TGI was found to be 11.7 µM.

The compound `O=C(CNc1ccc([N+](=O)[O-])cc1)Nn1c(-c2ccccc2)nc2ccccc2c1=O` registered a TGI of 29.2 µM.

Regarding `CC1CCC2C(C)C(OC(=O)CCC(=O)O)OC3OC4(C)CCC1C32OO4` (configuration not stated), the TGI is > 100 µM.

Turning to `O=C1NC(=NCCc2ccccc2F)S/C1=C\c1ccc2ncccc2c1`, the GI50 is 8 µM and the TGI is > 25 µM.

In the case of `C#CCC(O)c1ccc(OC)c(OCc2ccccc2)c1` (configuration not stated), the TGI was > 100 µM.
